PubChem BioAssay AID2675 (National Center for Advancing Translational Sciences (NCATS), 2010)
About 100 (0.036%) of roughly 280,000 compounds were called active. The inconclusive results got no clear call from the source; some entries with a clear call stand among them for comparison. Calls come from the whole dose curve; as a rule, active = well fitted inhibition curve with a large enough effect in the signal ratio, with a control signal flat (not every such curve was filed as active); inconclusive = small, poorly fitted or top-dose-only effect, or effect the other way, or a change in a side signal; inactive = no such curve, though single readings can be large or run the other way; the % refers to the signal ratio. Potencies of inconclusive entries are doubtful fits and often do not repeat. “Side channel” marks fits to a control or component signal instead of the main read-out.
% is set by controls: 0 for no effect and ±100 for the full control effect; potency is the fitted concentration of half-maximal effect; tags give direction and shape of the fitted curve or compound fluorescence and quenching.

The molecules below were run against Muscleblind-like protein 1 (Homo sapiens) (UniProt Q9NR56) (assay: qHTS Assay for Inhibitors of MBNL1-poly(CUG) RNA binding). Conditions: TR-FRET MBNL1-His/biotin-(CUG)12 binding, 665/545 ratio; activity change, negative = inhibition: at 57.5 µM (top of the series).
Chain of UniProt Q9NR56 (Q9NR56 whole entry, looked up): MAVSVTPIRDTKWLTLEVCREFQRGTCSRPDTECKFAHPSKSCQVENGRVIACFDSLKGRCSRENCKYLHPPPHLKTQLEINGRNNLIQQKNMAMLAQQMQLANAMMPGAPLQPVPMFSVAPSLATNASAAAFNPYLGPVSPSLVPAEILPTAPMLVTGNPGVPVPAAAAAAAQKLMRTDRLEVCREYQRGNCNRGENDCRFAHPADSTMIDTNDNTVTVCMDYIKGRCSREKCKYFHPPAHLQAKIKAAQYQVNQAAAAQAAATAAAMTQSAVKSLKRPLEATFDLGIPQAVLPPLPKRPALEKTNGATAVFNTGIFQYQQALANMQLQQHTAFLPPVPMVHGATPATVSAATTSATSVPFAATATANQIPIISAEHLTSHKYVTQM
Outline: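 TR-FRET between His-tagged MBNL1 and biotin-(CUG)12 RNA, detected with Tb anti-His antibody (0.055 ng/ul) and streptavidin-XL665 (5 nM), 60 min at room temperature. Compounds titrated 92 nM to 58 uM; 665/545 nm ratio normalized to buffer and complex controls.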
For `CCOc1ccc(-n2ccnc2SCC(=O)Nc2nnc(CC)s2)cc1`, the “activity change, negative = inhibition” value was inactive: -9.26%.
For `CCCCOC(=O)CN1C(=O)c2ccc(C(=O)OCCCC)cc2C1=O`, the Potency was inconclusive: 8.91 µM [quencher, side channel, partial curve].
`Cc1ccc(C)c(-n2c3nc(=O)n(C)c(=O)c-3cc3ccccc32)c1` was tested, and the Potency was inconclusive: 11.2 µM [quencher, side channel, partial curve].
`CCN(CC)CCCNC(=O)CCC(=O)NNc1nc2ccccc2c2nc(C)nn12` was tested, and the “activity change, negative = inhibition” value was inactive: -0.35%.
In the case of `O=C(O)CNC(=O)c1ccc(NC(=O)/C(=C/c2cccc([N+](=O)[O-])c2)NC(=O)c2ccco2)cc1`, the Potency is reported as inconclusive: 17.8 µM [quencher, side channel, partial curve].
`O=C(N/N=C/C=C/c1ccco1)c1ccccc1Cl` was tested, and the Potency was inconclusive: 28.2 µM [quencher, side channel, single point].
With `O=C(c1ccc2c(=O)n3c(nc2c1)CCCCC3)N1CCN(c2ccc([N+](=O)[O-])cc2)CC1` the Potency was inconclusive: 14.1 µM [quencher, side channel, partial curve].
For `O=S(=O)(c1ccccc1)c1nc(NCc2ccccc2)sc1Cl`, the “activity change, negative = inhibition” value was inactive: -8.8%.
For `CCN(CC)c1ccc(C(=O)c2cnc(/N=C/N(C)C)s2)cc1`, the Potency was inconclusive: 14.1 µM [quencher, side channel, partial curve].
In the case of `CCc1occc(=O)c1Oc1cc(NN2CCCCC2)c([N+](=O)[O-])cc1[N+](=O)[O-]`, the Potency is reported as inconclusive: 12.6 µM [quencher, side channel, partial curve].
For `CC1CCCCN1C(=O)C1CCCCN1S(=O)(=O)c1cccc([N+](=O)[O-])c1` (centres undefined), the Potency was inconclusive: 15.8 µM [quencher, partial curve].
In the case of `Nc1nc(Nc2ccccc2)nc(NCc2ccco2)c1[N+](=O)[O-]`, the Potency is reported as inconclusive: 35.5 µM [quencher, side channel, partial curve].
In the case of `O=C(NCCN1CCOCC1)NC1(C(F)(F)F)Oc2ccc(Cl)cc2O1` (centres undefined), the “activity change, negative = inhibition” value is reported as inactive: -6.54%.
In the case of `O=C(Oc1ccccc1)c1ccc2nccnc2c1`, the Potency is reported as inconclusive: 14.1 µM [quencher, partial curve].
For `C=CCN1C(=O)C(CC(=O)O)SC1=Nc1cccc([N+](=O)[O-])c1` (centres undefined), the Potency was inconclusive: 25.1 µM [quencher, side channel, partial curve].
With `CNC(=O)/C(C#N)=c1\s/c(=C/C(=O)OC)c(=O)n1-c1ccccc1` the Potency was inconclusive: 20 µM [quencher, side channel, single point].
In the case of `Cc1cc2ccccn2c1C(=O)c1ccncc1`, the Potency is reported as inconclusive: 25.1 µM [quencher, side channel, partial curve, poor fit].
For `Nc1nn(-c2ccccc2)c(N)c1N=Nc1ccc2c(c1)OCO2`, the Potency was inconclusive: 20 µM [quencher, side channel, partial curve].
In the case of `CC1CCCCN1c1nnc(NC(=O)c2cc(-c3ccc(Br)cc3)on2)s1` (centres undefined), the Potency is reported as inconclusive: 0.631 µM [quencher, side channel, full curve, poor fit].
For `CCOc1ccc2nc(SCc3cccc(C)c3)nc(C)c2c1`, the Potency was inconclusive: 0.501 µM [fluorescent, side channel, partial curve].
For `COC(=O)c1ccncc1N`, the “activity change, negative = inhibition” value was inactive: 2.8%.
`CC1CN(c2nc3ccccc3nc2C(C#N)C(=O)OC2CCCCC2)CC(C)O1` (centres undefined) was tested, and the Potency was inconclusive: 39.8 µM [fluorescent, side channel, single point].
`Cc1ccc(-c2onc3ccc(C4OCCO4)cc23)cc1` was tested, and the Potency was inconclusive: 17.8 µM [quencher, side channel, partial curve].
For `O=C(OCc1ccccc1)/C(=C/c1cccc([N+](=O)[O-])c1)NC(=O)c1ccco1`, the Potency was inconclusive: 14.1 µM [quencher, side channel, partial curve].
`N#C/C(=C\c1ccccc1O)C(=O)Nc1cccnc1` was tested, and the Potency was inconclusive: 1.58 µM [quencher, side channel, partial curve, poor fit].
`N=c1oc2ccc([N+](=O)[O-])cc2cc1C(=O)NCc1ccccc1` was tested, and the Potency was inconclusive: 7.08 µM [quencher, side channel, partial curve].
With `O=C1OCc2cccc([N+](=O)[O-])c21` the Potency was inconclusive: 8.91 µM [quencher, side channel, single point].
With `COCCCn1[nH]c2c3c(ccc2c1=O)C(=O)c1ccccc1C3=O` the Potency was inconclusive: 2.51 µM [quencher, side channel, full curve].
With `CN1CCN(C(=O)c2cc3c(s2)-c2ccccc2S(=O)(=O)C3)CC1` the Potency was inconclusive: 10 µM [quencher, side channel, partial curve].
For `COc1ccc(CN2C(=O)c3cccnc3C2=O)cc1S(=O)(=O)N(C)c1ccc(C)cc1`, the Potency was inconclusive: 14.1 µM [quencher, side channel, partial curve].
In the case of `Cc1ccc(-n2nc(C)c3c2OC(N)=C(C#N)C3c2ccc(C)o2)cc1` (centres undefined), the Potency is reported as inconclusive: 14.1 µM [quencher, side channel, single point].
For `O=C(CCCN1C(=O)/C(=C/c2ccccc2)SC1=S)Nc1ccccc1O`, the “activity change, negative = inhibition” value was inactive: 7.16%.
With `COc1ccc(C2Nc3ccc4ccccc4c3-c3c2c(=O)oc2ccccc32)cc1` (centres undefined) the “activity change, negative = inhibition” value was inactive: -3.02%.
`Cc1ccc(C(=O)NNC(=O)c2cccnc2SCc2cccc([N+](=O)[O-])c2)cc1` was tested, and the Potency was inconclusive: 7.08 µM [fluorescent, side channel, single point].
`CN(CCOc1ccccc1)C(=O)c1cc([N+](=O)[O-])cc([N+](=O)[O-])c1` was tested, and the Potency was inconclusive: 12.6 µM [quencher, side channel, partial curve].
For `Cn1ccnc1Sc1ccc(C=O)cc1[N+](=O)[O-]`, the Potency was inconclusive: 14.1 µM [quencher, side channel, partial curve].
`NC(=O)c1ccc(Nc2nnc(-c3ccc(O)cc3)c3ccccc23)cc1` was tested, and the Potency was inconclusive: 17.8 µM [quencher, side channel, partial curve].
With `CC(=O)N(CN1C(=O)c2ccc([N+](=O)[O-])cc2C1=O)c1ccc(F)cc1` the Potency was inconclusive: 3.98 µM [quencher, side channel, partial curve].
With `C/C(=N\NC(=O)c1ccccc1)c1cc2cc([N+](=O)[O-])ccc2oc1=O` the Potency was inconclusive: 25.1 µM [quencher, side channel, single point].
With `CCN(C(=O)CCS(=O)(=O)c1cccc2nonc12)c1ccc(F)cc1` the Potency was inconclusive: 12.6 µM [quencher, side channel, partial curve].
`Cc1ccc(NC(=O)c2ccn(C)n2)c(Br)c1` was tested, and the Potency was inconclusive: 316 µM [inhibitor, partial curve].
`CSc1nc(SCC(=O)O)c2c3c(sc2n1)COC(C)(C)C3` was tested, and the “activity change, negative = inhibition” value was inactive: 15.5%.
In the case of `COc1cc(CNS(=O)(=O)c2ccc3c(c2)CC(C)N3C(C)=O)cc(OC)c1OC` (centres undefined), the “activity change, negative = inhibition” value is reported as inactive: 0.66%.
`Cc1nc([N+](=O)[O-])cn1Cc1cccc2ccccc12` was tested, and the Potency was inconclusive: 31.6 µM [quencher, side channel, single point].
For `N#CC12CCCCC1CC1CCCCC1(C#N)N2Cc1cccnc1` (centres undefined), the Potency was inconclusive: 3.98 µM [inhibitor, full curve, poor fit].
With `CC(=O)NNC(=O)CSc1nnc(-c2ccccc2)c(-c2ccccc2)n1` the Potency was inconclusive: 17.8 µM [quencher, side channel, partial curve].
With `COc1cccc(Nc2cc(C)nc3ccccc23)c1` the Potency was inconclusive: 35.5 µM [quencher, side channel, single point].
For `O=C(CSc1ncnc2c1oc1ccccc12)NC1CCCC1`, the Potency was inconclusive: 39.8 µM [fluorescent, single point].
With `O=C(Nc1cccnc1Cl)c1cc([N+](=O)[O-])ccc1Cl` the Potency was inconclusive: 25.1 µM [quencher, side channel, partial curve].
With `CN(CCc1ccccc1)c1ccc([N+](=O)[O-])cn1` the Potency was inconclusive: 15.8 µM [quencher, side channel, partial curve].
`Clc1ccc(OCc2cn3cccnc3n2)c2ncccc12` was tested, and the Potency was inconclusive: 12.6 µM [quencher, side channel, partial curve].
`N#Cc1cccnc1Nc1cccc(Cl)c1` was tested, and the Potency was inconclusive: 1 µM [quencher, side channel, single point].
With `O=C(c1ccccn1)c1ccc2ccccc2n1` the Potency was inconclusive: 11.2 µM [quencher, side channel, partial curve].
In the case of `CC(C)C(=O)Nc1cccc(C(=O)Nc2cc([N+](=O)[O-])ccc2F)c1`, the Potency is reported as inconclusive: 15.8 µM [quencher, side channel, partial curve].
`CCc1c(C)sc(NC(=O)c2ccco2)c1C#N` was tested, and the “activity change, negative = inhibition” value was inactive: 11.2%.
For `CC(C)OC(=O)CSc1nnc(-c2ccc([N+](=O)[O-])cc2)o1`, the Potency was inconclusive: 3.16 µM [quencher, side channel, full curve].
With `O=C(NCc1ccc(F)cc1)c1cc(-c2ccncc2)nc2ccccc12` the Potency was inconclusive: 14.1 µM [quencher, side channel, partial curve].
For `COC(=O)c1cccc(NC(=O)CCNC(=O)c2ccc([N+](=O)[O-])cc2)c1`, the Potency was inconclusive: 1.78 µM [quencher, side channel, full curve].
In the case of `O=C1NC(Nc2nccs2)(C(F)(F)F)C(=O)N1CCc1ccccc1` (centres undefined), the “activity change, negative = inhibition” value is reported as inactive: -4.11%.
